Tests used:
[1] = system: Fusarium graminearum, isolate 8 (FGR 008); conditions: Example 1; 100 μg/ml; scale 0 (no inhibition relative to water control) to 4 (complete inhibition)
Procedure: (§1) The tachyplesin was used at a concentration of 100 μg/ml as determined by absorption spectrum was screened against four common plant pathogens in both crude and oxidized forms. Antifungal activity was scored on a scale of 0 to 4, with 0 being no inhibition observed relative to a water control, and 4 being complete inhibition. Two reps were done for each treatment. Results were as follows:
(§2) Decreasing tested concentrations of tachyplesin were against the preceding four organisms plus Fusarium moniliforme and Sclerotinia sclerotiorum to determine the minimum inhibitory concentration, and this was compared with other antimicrobial compounds.

[2] = system: Aspergillus flavus, isolate 1 (AFL 001); assay: Antifungal activity score, decreasing concentrations; type: cell-based; conditions: 100 μg/ml
Procedure: as §1, §2

Substance	Score (antifungal activity), Fusarium graminearum, isolate 8 [1]	Score (antifungal activity), Aspergillus flavus, isolate 1 [2]
tachyplesin [tachyplesin oxidized]	4.0	3.5
tachyplesin [tachyplesin crude]	4.0	3.5
